Measurements: the supplement of paper PMC8183993
Where a name gives a salt, the structure may show the parent alone. ± gives the standard deviation of the averaged measurements. In all, about 3,200 compounds were measured (“nuclei count (viability) relative to DMSO”: median about 99, lowest 2% from about 16 on). The list shows a part of the results.

Tested on: U2OS
Experiment: nuclei count (viability) relative to DMSO (% of DMSO); higher = more viable cells
Details: 10 µM; 24 h
Description: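 Primary image-based screen in U2OS cells: compounds at 10 uM for 24 h, then a 1 h o-propargyl-puromycin (OPP) pulse, click labelling, and high-throughput microscopy. Mean cytoplasmic OPP intensity and nuclei count were normalised to DMSO wells within each plate (DMSO = 100) and averaged over triplicate plates.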

SMILES | nuclei count
Cc1c(C)c2c(c(C)c1O)CCC(C)(C(=O)O)O2 (stereo unspecified) [Trolox] | 105.5 ± 0.69
CC1(c2ccccc2)OC(C(=O)O)=CC1=O (stereo unspecified) [Acifran] | 91.8
Cc1cc(=O)n(C)c2cc(N3C(=O)CC[C@H](NS(=O)(=O)CC(C)C)[C@H]3c3ccc(Cl)cc3)ccc12 | 104
CCN(CC)CCOC(=O)c1ccc(N)cc1 [Procaine hydrochloride] | 95.3
O=C1CCC[C@@H]2[C@H]3CCC[N+]4([O-])CCC[C@@H](CN12)[C@@H]34 (stereo partly specified) [Oxymatrine (Matrine N-oxide)] | 104
COC(=O)C(Cc1ccc(OCCn2c(=O)sc3cc(C(=O)c4ccccc4)ccc32)cc1)C(=O)OC | 102
COc1cccc2cc(-c3nc([C@H]4CC[C@H](C(=O)O)CC4)n4ncnc(N)c34)[nH]c12 | 80.4
O=C(O)Cc1cccc(OCCCN(Cc2cccc(C(F)(F)F)c2Cl)CC(c2ccccc2)c2ccccc2)c1 [GW 3965 hydrochloride] | 101
CC(=O)O[C@H]1C[C@@]2(C)[C@@H](C[C@@H](O)[C@H]3[C@@]4(C)CC[C@@H](O)[C@@H](C)[C@@H]4CC[C@@]32C)/C1=C(\CCC=C(C)C)C(=O)O [Fusidic acid sodium salt] | 97.6
C[C@]1(c2nc3c(C(N)=O)cccc3[nH]2)CCCN1 [ABT-888 (Veliparib)] | 100
N[C@@H](Cc1cc(I)c(Oc2ccc(O)cc2)c(I)c1)C(=O)O [3,5-Diiodo-L-thyronine] | 89.8
CC(=O)N[C@@H](CS)C(=O)O [N-Acetyl-Cysteine] | 103
CC(=O)N[C@@H](CS)C(=O)O [Acetylcysteine] | 102
COc1cc(C2Oc3cc([C@H]4Oc5cc(O)cc(O)c5C(=O)[C@@H]4O)ccc3OC2CO)ccc1O (stereo partly specified) [Silibinin (Silybin)] | 115
O=c1[nH]c2cc(C(F)(F)F)ccc2n1-c1cc(C(F)(F)F)ccc1O | 99.4
CN(C)CCn1nnnc1SCC1=C(C(=O)O)N2C(=O)[C@@H](NC(=O)Cc3csc(N)n3)[C@H]2SC1 [Cefotiam hydrochloride] | 86.2
O=c1cc(-c2ccccc2)oc2cc(O)c(O)c(O)c12 [Baicalein] | 90.1 ± 7.5
O=C(O)CCC/C=C\CC1C(O)CC(O)C1/C=C/C(O)COc1cccc(Cl)c1 (racemic) [(±)-Cloprostenol sodium salt] | 102
CCNC(=O)CCC/C=C\C[C@@H]1[C@@H](/C=C/[C@@H](O)CCc2ccccc2)[C@H](O)C[C@@H]1O [Bimatoprost] | 91
COc1ccc(S(=O)(=O)Nc2cccnc2Nc2ccc(O)cc2)cc1 | 23
C[C@]12C[C@H](O)[C@H]3[C@@H](CCC4=CC(=O)CC[C@@]43C)[C@@H]1CC[C@@H]2C(=O)CO [Corticosterone] | 107
O=C1NCCc2[nH]c(-c3ccncc3)cc21 | 48.5 ± 0.87
Cc1ccc(NC(=O)c2cccc(N(C)C)c2)cc1NC(=O)c1ccc(O)cc1 | 94.1 ± 10

SMILES | nuclei count
O=C(/C=C/c1ccc(O)c(O)c1)c1ccc(O)cc1O [Butein] | 92.1 ± 4.8
CC[C@H]1OC(=O)C[C@@H](O)[C@H](C)[C@@H](O[C@@H]2O[C@H](C)[C@@H](O[C@H]3C[C@@](C)(O)[C@@H](O)[C@H](C)O3)[C@H](N(C)C)[C@H]2O)[C@@H](CC=O)C[C@@H](C)C(=O)/C=C/C(C)=C/[C@@H]1CO[C@@H]1O[C@H](C)[C@@H](O)[C@@H](OC)[C@H]1OC [Tylosin tartrate] | 109
CC[C@H]1OC(=O)C[C@@H](O)[C@H](C)[C@@H](O[C@@H]2O[C@H](C)[C@@H](O[C@H]3C[C@@](C)(O)[C@@H](O)[C@H](C)O3)[C@H](N(C)C)[C@H]2O)[C@@H](CC=O)C[C@@H](C)C(=O)/C=C/C(C)=C/[C@@H]1CO[C@@H]1O[C@H](C)[C@@H](O)[C@@H](OC)[C@H]1OC [Tylosin] | 99.1
COC(=O)C1=C(C)NC(C)=C([N+](=O)[O-])C1c1ccccc1C(F)(F)F (racemic) | 111
O=C(CCCCCCC(=O)Nc1ccccc1)NO [Vorinostat] | 32.7
CCc1ccc2c(-c3cccc(Cl)c3)nc(=O)n(CC)c2n1 | 101
NCCCCCNCC12CC3CC(CC(C3)C1)C2 [IEM 1754 dihydrobroMide] | 103
CC1(C)O[C@@H]2C[C@H]3[C@@H]4CCC5=CC(=O)C=C[C@]5(C)[C@H]4[C@@H](O)C[C@]3(C)[C@]2(C(=O)CO)O1 [Desonide] | 91.4
C/C(=C(\CCOP(=O)(O)O)SC(=O)c1ccccc1)N(C=O)Cc1cnc(C)nc1N [Benfotiamine] | 107
COc1cc2/c(=N/c3ccc(Br)cc3F)nc[nH]c2cc1OCC1CCN(C)CC1 [Vandetanib (Zactima)] | 44.7
CCN(CC)C(=S)SSC(=S)N(CC)CC [Disulfiram] | 92.1 ± 4.2
Cc1cc(OCCCS(C)(=O)=O)cc(C)c1-c1cccc(COc2ccc3c(c2)OC[C@H]3CC(=O)O)c1 | 98.2
C=C[C@@]1(C)CC(=O)[C@]2(O)[C@@]3(C)[C@@H](O)CCC(C)(C)[C@@H]3[C@H](O)[C@H](OC(C)=O)[C@@]2(C)O1 [Forskolin] | 94.9 ± 7.2
O=C(CCCCCN1C(=O)c2cccc3cccc(c23)C1=O)NO [Scriptaid] | 33.6 ± 1.2
O=c1cc(-c2ccccc2)oc2cc(O)cc(O)c12 [Chrysin] | 92.9
Nc1c2c(nc3ccccc13)CCCC2 [Tacrine hydrochloride] | 91.6 ± 1.2
O=c1sn(-c2cccc3ccccc23)c(=O)n1Cc1ccccc1 [Tideglusib] | 98.3
Cc1ccccc1OCC(O)CO (stereo unspecified) [Mephenesin] | 104
CS(=O)(=O)c1ccc(-c2cc(Br)sc2-c2ccc(F)cc2)cc1 | 99.5
O=C1CN(/N=C/c2ccc([N+](=O)[O-])o2)C(=O)N1 [Nitrofurantoin] | 102
CC(C)N(CCCNC(=O)Nc1ccc(C(C)(C)C)cc1)C[C@H]1O[C@@H](n2cc(Br)c3c(N)ncnc32)[C@H](O)[C@@H]1O | 91.1
S=c1ccss1 [1,2-Dithiole-3-thione] | 97.6
Cc1nc2sccn2c(=O)c1CCN1CCC(=C(c2ccccc2)c2ccc(F)cc2)CC1 | 101
